# Results reported in article PMC9636131.
# Amino acid sequences for entries named in this document (tags omitted).
# UniProt Q9UJU2: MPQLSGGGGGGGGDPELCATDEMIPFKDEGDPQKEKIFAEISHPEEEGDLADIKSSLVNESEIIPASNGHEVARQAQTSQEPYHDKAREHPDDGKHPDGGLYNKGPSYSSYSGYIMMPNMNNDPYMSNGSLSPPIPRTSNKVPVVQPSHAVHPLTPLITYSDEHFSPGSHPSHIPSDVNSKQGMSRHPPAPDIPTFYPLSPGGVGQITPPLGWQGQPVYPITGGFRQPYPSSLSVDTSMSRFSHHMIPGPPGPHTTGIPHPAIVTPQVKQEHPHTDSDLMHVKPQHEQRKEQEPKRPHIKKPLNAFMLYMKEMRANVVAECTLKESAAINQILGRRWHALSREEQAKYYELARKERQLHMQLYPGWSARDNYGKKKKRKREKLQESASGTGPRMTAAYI
# UniProt O95863: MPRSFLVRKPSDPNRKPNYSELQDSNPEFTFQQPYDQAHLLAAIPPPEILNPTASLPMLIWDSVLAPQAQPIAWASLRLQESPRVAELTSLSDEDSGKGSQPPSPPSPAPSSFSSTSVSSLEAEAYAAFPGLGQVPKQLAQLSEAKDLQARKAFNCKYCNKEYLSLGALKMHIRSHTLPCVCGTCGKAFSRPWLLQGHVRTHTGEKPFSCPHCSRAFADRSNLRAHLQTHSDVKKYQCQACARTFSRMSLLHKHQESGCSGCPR
# UniProt Q00613: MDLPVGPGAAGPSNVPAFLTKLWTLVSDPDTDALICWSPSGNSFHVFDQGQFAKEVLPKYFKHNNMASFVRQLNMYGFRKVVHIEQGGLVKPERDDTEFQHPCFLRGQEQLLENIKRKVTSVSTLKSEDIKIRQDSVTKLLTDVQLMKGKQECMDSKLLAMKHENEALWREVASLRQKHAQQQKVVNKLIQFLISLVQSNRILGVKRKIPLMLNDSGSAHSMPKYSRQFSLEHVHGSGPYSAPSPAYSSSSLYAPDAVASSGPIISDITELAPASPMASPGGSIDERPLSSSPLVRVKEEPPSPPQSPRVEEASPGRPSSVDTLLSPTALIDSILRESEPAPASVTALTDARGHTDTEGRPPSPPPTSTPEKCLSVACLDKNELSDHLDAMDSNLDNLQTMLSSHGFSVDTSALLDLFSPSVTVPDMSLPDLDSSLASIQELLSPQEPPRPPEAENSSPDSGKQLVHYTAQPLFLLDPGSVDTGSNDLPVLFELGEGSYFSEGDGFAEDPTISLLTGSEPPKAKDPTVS
# UniProt P16220: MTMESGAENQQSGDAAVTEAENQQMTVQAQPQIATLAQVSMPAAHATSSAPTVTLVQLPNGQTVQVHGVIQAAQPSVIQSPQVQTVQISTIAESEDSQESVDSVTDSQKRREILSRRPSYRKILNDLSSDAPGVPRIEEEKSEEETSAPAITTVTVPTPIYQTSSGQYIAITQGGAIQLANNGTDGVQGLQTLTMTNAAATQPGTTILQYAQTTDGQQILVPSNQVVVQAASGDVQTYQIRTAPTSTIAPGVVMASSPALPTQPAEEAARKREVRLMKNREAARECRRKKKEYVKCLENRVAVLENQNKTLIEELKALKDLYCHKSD
# No constants are given. Whether binding was seen depends on the method and setting. Binding seen in cells or lysates may run through a third protein. Some results given as binding are weak or reduced against the parent protein; the word gives no strength. Tags and fused reporters may be left off the sequences shown.
# T1: Metastasis-associated with colon cancer protein 1 (MACC1), FLAG-tagged (human) (UniProt Q6ZN28)
# T1 sequence: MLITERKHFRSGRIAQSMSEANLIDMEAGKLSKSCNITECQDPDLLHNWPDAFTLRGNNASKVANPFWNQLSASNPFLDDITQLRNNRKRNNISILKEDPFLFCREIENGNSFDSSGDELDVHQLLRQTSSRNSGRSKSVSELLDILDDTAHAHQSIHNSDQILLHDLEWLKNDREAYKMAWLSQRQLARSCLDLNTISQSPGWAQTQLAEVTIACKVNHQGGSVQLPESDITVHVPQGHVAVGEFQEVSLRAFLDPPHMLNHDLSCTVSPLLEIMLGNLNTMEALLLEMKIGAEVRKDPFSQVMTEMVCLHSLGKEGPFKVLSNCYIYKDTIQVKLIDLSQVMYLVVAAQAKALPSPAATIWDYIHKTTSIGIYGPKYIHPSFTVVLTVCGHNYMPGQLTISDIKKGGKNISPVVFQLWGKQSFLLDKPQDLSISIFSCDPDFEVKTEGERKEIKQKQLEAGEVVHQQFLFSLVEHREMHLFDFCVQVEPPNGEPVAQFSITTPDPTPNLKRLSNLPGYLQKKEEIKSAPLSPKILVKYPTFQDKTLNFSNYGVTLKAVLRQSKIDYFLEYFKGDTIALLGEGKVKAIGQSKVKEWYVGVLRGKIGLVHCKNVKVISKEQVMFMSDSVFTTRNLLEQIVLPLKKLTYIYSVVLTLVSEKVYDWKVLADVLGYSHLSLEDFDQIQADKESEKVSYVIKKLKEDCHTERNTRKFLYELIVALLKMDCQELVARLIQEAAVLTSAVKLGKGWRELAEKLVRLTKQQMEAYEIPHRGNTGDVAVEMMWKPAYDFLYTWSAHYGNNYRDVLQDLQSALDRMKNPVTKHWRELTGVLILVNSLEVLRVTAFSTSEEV
# Assays:
# [1] = target: T1, Metastasis-associated with colon cancer protein 1 (MACC1), FLAG-tagged (human); assay: co-IP; HA-tagged transcription factor and FLAG-tagged MACC1 co-expressed in HEK293T cells; lysis in EBC buffer (50 mM Tris pH 7.5, 120 mM NaCl, 0.5% NP-40); anti-Flag or anti-HA beads 3-4 h at 4 °C; three washes in NETN buffer (100 mM NaCl, 20 mM Tris pH 8.0, 1 mM EDTA, 0.5% NP-40); immunoblot with anti-FLAG and anti-HA
# [2] = target: T1, Metastasis-associated with colon cancer protein 1 (MACC1), FLAG-tagged (human); assay: co-IP; PANC-1 and SUIT-2 cells transfected with the indicated plasmids; immunoprecipitated with anti-Flag or anti-HA beads; immunoblot with anti-FLAG and anti-HA
binding [1],binding [2],Molecule
no binding,,"LEF1, HA-tagged (from UniProt Q9UJU2 1-399)"
binds,binds,"snail family transcriptional repressor 1 (SNAI1), HA-tagged (from UniProt O95863 1-264)"
no binding,,"HSF1, HA-tagged (from UniProt Q00613 1-529)"
no binding,,"CREB1, HA-tagged (from UniProt P16220 1-327)"
no binding,,"ATF3, HA-tagged (protein, UniProt P18847 1-181) MMLQHPGQVSASEVSASAIVPCLSPPGSLVFEDFANLTPFVKEELRFAIQNKHLCHRMSSALESVTVSDRPLGVSITKAEVAPEEDERKKRRRERNKIAAAKCRNKKKEKTECLQKESEKLESVNAELKAQIEELKNEKQHLIYMLNLHRPTCIVRAQNGRTPEDERNLFIQQIKEGTLQS"
